Here are results for three molecules from US20090311253A1 (AbbVie / Abbott, published 2009).

Assay [1] concerns the target T1, IL-6R on cells (UniProt P08887 20-468, limits assumed).
T1 sequence (looked up): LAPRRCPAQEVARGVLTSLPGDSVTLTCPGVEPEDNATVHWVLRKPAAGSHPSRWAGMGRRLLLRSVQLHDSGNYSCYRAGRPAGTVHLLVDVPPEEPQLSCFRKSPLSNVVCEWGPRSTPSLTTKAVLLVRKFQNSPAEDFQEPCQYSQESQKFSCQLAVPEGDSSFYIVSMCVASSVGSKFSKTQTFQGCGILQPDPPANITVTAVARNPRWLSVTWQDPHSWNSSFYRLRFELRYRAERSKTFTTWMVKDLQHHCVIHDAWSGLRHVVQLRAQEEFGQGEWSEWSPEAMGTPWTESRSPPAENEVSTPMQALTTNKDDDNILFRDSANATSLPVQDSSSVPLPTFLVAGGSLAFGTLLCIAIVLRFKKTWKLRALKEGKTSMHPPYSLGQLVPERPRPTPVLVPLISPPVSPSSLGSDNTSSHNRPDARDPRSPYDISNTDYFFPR
Put plainly: cell-based or functional assay.

The target in assay [2] is T2, Recombinant Human IL-17 (human, UniProt Q16552 20-155, limits assumed).
T2 construct: bought; also called IL-17A
Kind of assay: Biacore SPR. As for the experimental part:
(§1) The BIACORE assay (Biacore, Inc, Piscataway, N.J.) determines the affinity of antibodies or DVD-Ig with kinetic measurements of on-rate and off-rate constants. Binding of antibodies or DVD-Ig to a target antigen (for example, a purified recombinant target antigen) is determined by surface plasmon resonance-based measurements with a BiacoreR 1000 or 3000 instrument (Biacore® AB, Uppsala, Sweden) using running HBS-EP (10 mM HEPES [pH 7.4], 150 mM NaCl, 3 mM EDTA, and 0.005% surfactant P20) at 25° C. All chemicals are obtained from Biacore® AB (Uppsala, Sweden) or otherwise from a different source as described in the text. For example, approximately 5000 RU of goat anti-mouse IgG, (Fcγ), fragment specific polyclonal antibody (Pierce Biotechnology Inc, Rockford, Ill.) diluted in 10 mM sodium acetate (pH 4.5) is directly immobilized across a CM5 research grade biosensor chip using a standard amine coupling kit according to manufacturer's instructions and procedures at 25 μg/ml. Unreacted moieties on the biosensor surface are blocked with ethanolamine. Modified carboxymethyl dextran surface in flowcell 2 and 4 is used as a reaction surface. Unmodified carboxymethyl dextran without goat anti-mouse IgG in flow cell 1 and 3 is used as the reference surface. For kinetic analysis, rate equations derived from the 1:1 Langmuir binding model are fitted simultaneously to association and dissociation phases of all eight injections (using global fit analysis) with the use of Biaevaluation 4.0.1 software. Purified antibodies or DVD-Ig are diluted in HEPES-buffered saline for capture across goat anti-mouse IgG specific reaction surfaces. Antibodies or DVD-Ig to be captured as a ligand (25 μg/ml) are injected over reaction matrices at a flow rate of 5 μl/min. The association and dissociation rate constants, kₒₙ (M⁻¹s⁻¹) and koff (s⁻¹) are determined under a continuous flow rate of 25 μl/min. Rate constants are derived by making kinetic binding measurements at different antigen concentrations ranging from […]. The equilibrium dissociation constant (M) of the reaction between antibodies or DVD-Igs and the target antigen is then calculated from the kinetic rate constants by the following formula: KD=koff/kₒₙ. Binding is recorded as a function of time and kinetic rate constants are calculated.

For assay [3], the target named is T3, Recombinant Human IL-6 sR (human, UniProt P08887 20-358, limits assumed).
T3 construct: domain: IL-6 sR; soluble receptor; also called IL-6R
T3 sequence (looked up): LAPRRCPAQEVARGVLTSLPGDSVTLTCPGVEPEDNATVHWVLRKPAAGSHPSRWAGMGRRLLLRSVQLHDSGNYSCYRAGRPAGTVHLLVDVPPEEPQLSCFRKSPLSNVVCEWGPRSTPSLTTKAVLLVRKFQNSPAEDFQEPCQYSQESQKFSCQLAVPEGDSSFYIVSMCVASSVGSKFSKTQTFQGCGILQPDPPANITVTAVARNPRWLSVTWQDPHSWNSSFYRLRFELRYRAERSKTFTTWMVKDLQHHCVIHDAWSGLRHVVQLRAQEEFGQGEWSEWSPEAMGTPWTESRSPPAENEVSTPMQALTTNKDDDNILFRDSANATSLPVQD
Kind of assay: Biacore SPR. As for the experimental part: as §1
Background: In SPR one partner is held on a chip, and binding of the other changes the refractive index at the surface.

The target of assay [4] is T2, Recombinant Human IL-17. Put plainly: direct bind ELISA. As for the experimental part:
(§2) Enzyme Linked Immunosorbent Assays to screen for antibodies that bind a desired target antigen were performed as follows. High bind ELISA plates (Corning Costar # 3369, Acton, Mass.) were coated with 100 μL/well of 10 μg/ml of desired target antigen (R&D Systems, Minneapolis, Minn.) or desired target antigen extra-cellular domain/FC fusion protein (R&D Systems, Minneapolis, Minn.) or monoclonal mouse anti-polyhistidine antibody (R&D Systems # MAB050, Minneapolis, Minn.) in phosphate buffered saline (10×PBS, Abbott Bioresearch Center, Media Prep# MPS-073, Worcester, Mass.) overnight at 4° C. Plates were washed four times with PBS containing 0.02% Tween 20. Plates were blocked by the addition of 300 μL/well blocking solution (non-fat dry milk powder, various retail suppliers, diluted to 2% in PBS) for ½ hour at room temperature. Plates were washed four times after blocking with PBS containing 0.02% Tween 20.
(§3) Plates were washed 4 times with PBS containing 0.02% Tween 20.
(§4) One hundred microliters of enhanced TMB solution (Neogen Corp. #308177, K Blue, Lexington, Ky.) was added to each well and incubated for 10 minutes at room temperature. The reaction was stopped by the addition of 50 μL 1N sulphuric acid. Plates were read spectrophotometrically at a wavelength of 450 nm.
For orientation: ELISA stands for enzyme-linked immunosorbent assay.

In assay [5] the target is T3, Recombinant Human IL-6 sR. Put plainly: direct bind ELISA. Here is the method: as §2, §3, §4
Assay [6] has as its target T2, Recombinant Human IL-17. Kind of assay: cell-based or functional assay.
The target of assay [7] is T1, IL-6R on cells. Kind of assay: flow cytometry on cells, 2 µg/mL. As for the experimental part:
Stable cell lines overexpressing a cell-surface antigen of interest or human tumor cell lines were harvested from tissue culture flasks and resuspended in phosphate buffered saline (PBS) containing 5% fetal bovine serum (PBS/FBS). Prior to staining, human tumor cells were incubated on ice with (100 μl) human IgG at 5 μg/ml in PBS/FCS. 1−5×10⁵ cells were incubated with antibody or DVD-Ig (2 μg/mL) in PBS/FBS for 30-60 minutes on ice. […] After 30 minutes incubation on ice, cells were washed twice and resuspended in PBS/FBS. Fluorescence was measured using a Becton Dickinson FACSCalibur (Becton Dickinson, San Jose, Calif.).
The geometric mean is the n root of the multiplication product of n fluorescent signals (a1×a2×a3 . . . an). With log-transformed data the geometric mean is used to normalize the weighting of the data distribution.
On the technique in general: In flow cytometry, cells or beads pass a laser one at a time.

The target of assay [8] is T4, Recombinant Human TRANCE/RANKL/TNFSF 11 (human, UniProt O14788 69-317).
T4 construct: extracellular domain
T4 sequence (looked up): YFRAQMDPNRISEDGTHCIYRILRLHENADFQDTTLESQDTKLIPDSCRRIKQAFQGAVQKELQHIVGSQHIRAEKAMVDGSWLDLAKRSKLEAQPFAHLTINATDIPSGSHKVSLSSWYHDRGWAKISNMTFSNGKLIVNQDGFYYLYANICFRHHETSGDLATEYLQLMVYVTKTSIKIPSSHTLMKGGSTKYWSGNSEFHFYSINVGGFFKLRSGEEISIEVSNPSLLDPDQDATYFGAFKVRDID
Put plainly: direct bind ELISA. Here is the method:
as §2, §3, §4

Assay [9] concerns the target T5, Recombinant Human IL-13 (human, UniProt P35225 in part, limits assumed). Kind of assay: cell-based or functional assay.
For assay [10], the target named is T6, Recombinant Human IL-4 (human, UniProt P05112 25-153).
T6 sequence (looked up): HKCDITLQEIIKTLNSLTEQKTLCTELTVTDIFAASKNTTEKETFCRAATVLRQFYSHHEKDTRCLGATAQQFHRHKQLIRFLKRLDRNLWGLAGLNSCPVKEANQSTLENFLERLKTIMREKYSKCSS
Put plainly: Biacore SPR. Here is the method: as §1

Assay [11] deals with T5, Recombinant Human IL-13. Kind of assay: Biacore SPR. Here is the method:
as §1

The target of assay [12] is T6, Recombinant Human IL-4. Kind of assay: direct bind ELISA. As for the experimental part: as §2, §3, §4
Assay [13] addresses T5, Recombinant Human IL-13. Put plainly: direct bind ELISA. As for the experimental part: as §2, §3, §4
The target in assay [14] is T6, Recombinant Human IL-4. Put plainly: cell-based or functional assay.

T5 sequence (P35225 35-146 limits assumed): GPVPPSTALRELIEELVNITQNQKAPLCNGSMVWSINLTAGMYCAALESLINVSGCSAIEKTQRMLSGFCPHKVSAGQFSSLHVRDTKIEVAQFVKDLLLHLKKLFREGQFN

B1: DVD147 (bispecific antibody, human IgG1, kappa)
heavy: EVQLQESGPGLVRPSQTLSLTCTVSGYSITSDHAWSWVRQPPGRGLEWIGYISYSGITTYNPSLKSRVTMLRDTSKNQFSLRLSSVTAADTAVYYCARSLARTTAMDYWGQGSLVTVSSASTKGPEVQLVESGGGLVQPGGSLRLSCAASGFTFSNYWMNWVRQAPGKGLEWVAAINQDGSEKYYVGSVKGRFTISRDNAKNSLYLQMNSLRVEDTAVYYCVRDYYDILTDYYIHYWYFDLWGRGTLVTVSS[left out - human IgG1 constant region]
light: DIQMTQSPSSLSASVGDRVTITCRASQDISSYLNWYQQKPGKAPKLLIYYTSRLHSGVPSRFSGSGSGTDFTFTISSLQPEDIATYYCQQGNTLPYTFGQGTKVEIKRTVAAP[left out - about 100 residues][left out - about 100 residues]
notes: vectors V1, V2; also called IL-6R and IL-17A DVD-Ig
As to B1, the “IL-6 induced pSTAT3 in TF-1 cells, EC50” value in assay [1] was 0.109 nM. In addition, in [2], the Kd (in general, the free concentration of one partner at which half of the binding sites on the other are occupied at equilibrium, for simple one-to-one binding) turned out to be 55.8 nM; the off-rate (koff) (in general, a measure of how fast the partners let go of each other) is 0.002 s⁻¹; the on-rate constant (kon) (commonly a measure of how fast the partners come together) came out at 34600 M⁻¹ s⁻¹. In [3], the Kd came out at 0.263 nM, the off-rate constant (koff) came out at 0.000187 s⁻¹ and the on-rate (kon) stood at 709000 M⁻¹ s⁻¹. Further, in [4], the concentration giving a half-maximal response (EC50) (in general, the concentration that produces a half-maximal response) is 41 nM. The half-maximal effective concentration (EC50) in assay [5] came out at 1.75 nM. Also, in [6], the “IL-17 Neutralization Assay EC50 (HS27 cells, IL-6 secretion)” value was found to be 6.7 nM. The “FACS Geometric Mean” value in assay [7] turned out to be 10.1.

B2: DVD130 (bispecific antibody, human IgG1, kappa)
heavy: EVQLLESGGGLVQPGGSLRLSCAASGFTFSSYAMSWVRQAPGKGLEWVSGITGSGGSTYYADSVKGRFTISRDNSKNTLYLQMNSLRAEDTAVYYCAKDPGTTVIMSWFDPWGQGTLVTVSSASTKGPEVQLQESGPGLVRPSQTLSLTCTVSGYSITSDHAWSWVRQPPGRGLEWIGYISYSGITTYNPSLKSRVTMLRDTSKNQFSLRLSSVTAADTAVYYCARSLARTTAMDYWGQGSLVTVSS[left out - human IgG1 constant region]
light: EIVLTQSPGTLSLSPGERATLSCRASQSVRGRYLAWYQQKPGQAPRLLIYGASSRATGIPDRFSGSGSGTDFTLTISRLEPEDFAVFYCQQYGSSPRTFGQGTKVEIKRTVAAPDIQMTQSPSSLSASVGDRVTITCRASQDISSYLNWYQQKPGKAPKLLIYYTSRLHSGVPSRFSGSGSGTDFTFTISSLQPEDIATYYCQQGNTLPYTFGQGTKVEIKRTVAAPSVFIFPPSDEQLKSGTASVVCLLNNFYPREAKVQWKVDNALQSGNSQESVTEQDSKDSTYSLSSTLTLSKADYEKHKVYACEVTHQGLSSPVTKSFNRGEC
notes: vectors V1, V2; also called RANKL and IL-6R DVD-Ig
Consider B2, for which the EC50 in assay [8] was 0.17 nM; in assay [5] it was 364 nM. The “FACS Geometric Mean” value in assay [7] was 0.82.

B3: DVD268 (bispecific antibody, human IgG1, kappa)
heavy: QVTLRESGPALVKPTQTLTLTCTFSGFSLSTSGMGVSWIRQPPGKGLEWLAHIYWDDDKRYNPSLKSRLTISKDTSRNQVVLTMTNMDPVDTATYYCARRETVFYWYFDVWGRGTPVTVSSASTKGPEVTLRESGPGLVKPTQTLTLTCTLYGFSLSTSDMGVDWIRQPPGKGLEWLAHIWWDDVKRYNPALKSRLTISKDTSKNQVVLKLTSVDPVDTATYYCARTVSSGYIYYAMDYWGQGTLVTVSS[left out - human IgG1 constant region]
light: DIVLTQSPSSLSASVGDRVTITCKASQSVDYDGDSYMNWYQQKPGKAPKLLIYAASNLESGIPSRFSGSGSGTDFTFTISSLQPEDIATYYCQQSNEDPPTFGQGTKVEIKRTVAAPDIQMTQSPSSLSASVGDRVTISCRASQDIRNYLNWYQQKPGKAPKLLIFYTSKLHSGVPSRFSGSGSGTDYTLTISSLQPEDIATYYCQQGLTPPLTFGGGTKVEIKRTVAAPSVFIFPPSDEQLKSGTASVVCLLNNFYPREAKVQWKVDNALQSGNSQESVTEQDSKDSTYSLSSTLTLSKADYEKHKVYACEVTHQGLSSPVTKSFNRGEC
notes: outer AB027, inner AB051; vectors V1, V2
With B3, in [9], the “IL-13 Neutralization Assay EC50 (A549 cells, hTARC)” value worked out at 0.9 nM. Besides, in assay [10], the koff was 0.00131 s⁻¹ and the kon worked out at 233000 M⁻¹ s⁻¹. Moreover, in [11], the Kd turned out to be 0.589 nM, the dissociation rate constant (koff) is 0.000446 s⁻¹ and the kon was determined as 757000 M⁻¹ s⁻¹. Besides, the EC50 in assay [12] was 3.13 nM. Besides, the half-maximal effective concentration (EC50) in assay [13] came to 583 nM. In [14], the “IL-4 Neutralization Assay EC50 (A549 cells, hTARC)” value turned out to be 0.73 nM.
